# From patent publication US4649911A, “Small particle aerosol generator for treatment of respiratory disease including the lungs” (Baylor College of Medicine, priority 1986, dated 1987)
# Like-named read-outs stand apart in the source and are kept apart here.
# Experiments:
# influenza A and B = conditions: mice; aerosol; treatment delayed as long as five days after inoculation; cited from earlier work
# influenza B = conditions: in vivo; cited from earlier work
# influenza A [1] = system: influenza A
# influenza A [2] = conditions: oral route; cited from earlier work
# [3] = mouse, in vivo; cited from earlier work
# [4] = system: influenza A/England/333/80 (H1N1); type: in vivo, human
# [5] = system: influenza A/Bangkok/79(H3N2); type: in vivo, human
# influenza = conditions: oral route; under some circumstances, with inconsistencies; cited from earlier work
# [6] = system: influenza A/Brazil/11/78 (H1N1); assay: Hemagglutination-inhibition antibody response, H1N1 virus (Example 1); type: in vivo, human; conditions: treated versus control, P=0.084
# [7] = not given; remark: listed apart in the source
# [8] = not given; remark: listed apart in the source
# [9] = system: influenza A/England/333/80 (H1N1) virus; assay: Virus titration in MDCK cells of virus added to nasal wash containing ribavirin; type: cell-based
# [10] = system: influenza A/Bangkok/1/79 (H3N2); assay: Hemagglutination-inhibition antibody response, H3N2 virus (Example 1); type: in vivo, human; conditions: in convalescence, from 1:14 mean acute titer
# influenza B virus = type: in vivo, human
# [11] = system: influenza A/England/333/80 (H1N1) virus
compound,measurement,setting,value
"NC12CC3CC(CC(C3)C1)C2 [Amantadine, amantadine]",therapeutic effect when treatment delayed,influenza A and B,substantial therapeutic effect
same,effectiveness in influenza B infection,influenza B,not effective
same,therapeutic effect,"influenza A [1]; […], three patients",apparent therapeutic effect
same,tolerance,"influenza A [1]; human, in vivo",good tolerance
same,effect on virus shedding,influenza A [2],little effect on virus shedding
same,effectiveness in cases with pulmonary complications,influenza A [2],not been very effective
same,estimated dosages in mice relative to man,[3],four-fold
NC(=O)c1ncn([C@@H]2O[C@H](CO)[C@@H](O)[C@H]2O)n1 [ribavirin],effectiveness and safety in influenza A/England/333/80 (H1N1) infection,"[4]; Example 1, conclusion",demonstrates the effectiveness and safety
same,"systemic illness, improvement","[4]; by next morning, less than 24 hours, P=0.004",improved greatly
same,"local findings of rhinitis, pharyngitis and tracheobronchitis","[4]; day 2, less than 48 hours after admission",only a trend of less illness
same,Mean hours from admission to sustained afebrile state (37.4° C.),"[4]; treated N=14, control 38.1",22.8 h
same,Mean Maximum Daily Temperature,"[4]; treated, calendar day 0 (essentially pretreatment), N=14, control 39.2, NS",39.4 °C
same,"Systemic Illness, mean score","[4]; treated, calendar day 0, physician score 0 to 3+, N=14, control 2.56, NS",2.64
same,"Rhinitis, pharyngitis, tracheobronchitis, mean score","[4]; treated, calendar day 0, score 0 to 3+, N=14, control 1.49, NS",1.52
same,Mean Maximum Daily Temperature,"[4]; treated, calendar day 1, N=14, control 38.6, NS",38.6 °C
same,"Rhinitis, pharyngitis, tracheobronchitis, mean score","[4]; treated, calendar day 1, score 0 to 3+, N=14, control 1.31, NS",1.31
same,"Systemic Illness, mean score","[4]; treated, calendar day 1, score 0 to 3+, N=14, control 2.18, P .004",1.50
same,Mean Maximum Daily Temperature,"[4]; treated, calendar day 2, N=13, control 37.4, one-tailed t-statistic .003",36.9 °C
same,"Rhinitis, pharyngitis, tracheobronchitis, mean score","[4]; treated, calendar day 2, score 0 to 3+, N=12, control 1.14, P .07",0.77
same,"Systemic Illness, mean score","[4]; treated, calendar day 2, score 0 to 3+, N=12, control 1.38, P .07",1.0
same,"mean virus titer (virus shedding, nasal wash)","[4]; treated, highly significant at 18 hours after admission",rapid reduction in mean virus titer
same,hematologic and clinical chemical tests,Example 4,no toxicity
same,tolerance,Example 4,well tolerated
same,estimated dose of ribavirin aerosol retained,"human, in vivo",about 2 g
same,recovery from severe influenza pneumonia and acute myocardial infarction,"[5]; Example 2, conclusion",recovered promptly
same,clinical course of influenza pneumonia,"[5]; human, in vivo",Improvement was steady and without complications
same,status at follow-up,[5]; one month later,"well, having recovered from both myocardial infarction and influenzal pneumonia"
same,hospital day of discharge,"[5]; person, […]",fourteenth hospital day
same,therapeutic effect when treatment delayed,influenza A and B,substantial therapeutic effect
same,therapeutic activity in influenza,influenza,has therapeutic activity
same,serologic response,[6],trend of greater serologic response
same,aerosol concentration of ribavirin,"[7]; Example 2, 60% oxygen/40% air, 10 liters per minute",180 µg/L
same,estimated retention factor,"[7]; human, in vivo",60%
same,ribavirin retained per hour,"[7]; human, in vivo",42 mg per hour
same,"ribavirin retained, total","[7]; human, in vivo",about 2.5 grams
same,Mean retention,[8]; Day 0,52 mg/h
same,Mean retention,[8]; Day 1,50 mg/h
same,Mean retention,[8]; Day 2,49.3 mg/h
same,retained fraction,"[8]; human, in vivo",0.7
same,Mean retention,[8]; total,51 mg/h
same,results of 50 μg/ml tests versus pre-treatment control specimens,[9]; 50 μg/ml in nasal wash,nearly identical with pre-treatment control specimens
same,inhibition of virus growth,"[9]; 1:10 dilution, 500 μg/ml only",inhibited virus growth
same,effect of heat on ribavirin (heated versus unheated material in virus titration),"[9]; 65° C. for one-half hour versus room temperature, 50, 100, 500 μg/ml",nearly identical results
same,inhibition of virus growth,"[9]; H1N1, 50 ug/mL",no inhibitory activity
same,inhibition of virus growth,[9]; higher dilutions,no drug effect was detected
same,inhibition of virus growth,"[9]; undiluted specimens, 100 μg/ml and 500 μg/ml",Some inhibition of virus growth
same,rise in antibody titers to H3N2 virus,[10],no rise in titers
same,defervescence,influenza B virus; in vivo,significantly more rapid defervescence
same,disappearance of systemic illness,influenza B virus; in vivo,"significantly more rapid defervescence, disappearance of systemic illness"
same,reduction of virus shedding in nasal secretions,influenza B virus; in vivo,reduction of virus shedding in nasal secretions
same,effectiveness in treatment of influenza B virus infection,"influenza B virus; randomized, controlled study, FIG. 3 arrangement",effective
same,ribavirin in post-treatment nasal wash specimens,[11],no significant amount of ribavirin was present
same,virus growth in post-treatment versus pre-treatment nasal wash specimens,[11]; all dilutions,almost identical virus growth
